Reference: paper PMC6919601, “Identification of Plasmodium dipeptidyl aminopeptidase allosteric inhibitors by high throughput screening” (PLoS ONE, 2019)
Out of some 110,000 compounds screened, about 230 (0.21%) showed an effect of 50% or more. This is one part of the list.

target: DPAP1 (Plasmodium falciparum, UniProt Q8IIJ9); test: primary screen, percent inhibition; read by cleavage of a fluorogenic dipeptide substrate; higher = more effect of the substance; parameters: species or system P. falciparum D10 trophozoite lysates; single well
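Further: 30 min substrate incubation versus DMSO and 10 µM JCP410 controls.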

DPAP1, sequence (Q8IIJ9 whole entry, looked up): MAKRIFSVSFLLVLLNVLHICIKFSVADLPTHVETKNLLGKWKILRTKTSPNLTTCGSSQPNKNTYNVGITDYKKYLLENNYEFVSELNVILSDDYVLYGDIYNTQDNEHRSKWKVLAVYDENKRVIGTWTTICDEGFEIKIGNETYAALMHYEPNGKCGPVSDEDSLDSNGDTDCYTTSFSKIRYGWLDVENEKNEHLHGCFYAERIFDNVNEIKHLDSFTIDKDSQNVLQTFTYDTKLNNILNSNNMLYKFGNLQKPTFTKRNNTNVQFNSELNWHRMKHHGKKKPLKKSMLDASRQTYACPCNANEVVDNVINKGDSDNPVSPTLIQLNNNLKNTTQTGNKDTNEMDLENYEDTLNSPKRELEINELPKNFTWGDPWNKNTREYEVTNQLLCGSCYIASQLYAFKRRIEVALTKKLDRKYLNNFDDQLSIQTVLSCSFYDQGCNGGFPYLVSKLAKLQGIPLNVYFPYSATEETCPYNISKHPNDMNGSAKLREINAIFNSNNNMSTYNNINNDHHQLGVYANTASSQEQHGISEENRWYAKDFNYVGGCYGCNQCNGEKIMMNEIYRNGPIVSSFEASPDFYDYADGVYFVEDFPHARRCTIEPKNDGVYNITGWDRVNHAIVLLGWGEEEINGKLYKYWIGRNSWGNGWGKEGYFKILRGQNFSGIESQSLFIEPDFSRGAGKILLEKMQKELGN

SMILES | % Inhibition @ 10 uM
Cc1cc(C)c(C#N)c(Nc2ccc(F)cc2)n1 | -1.79%
Cc1ccc(S(=O)(=O)N(C)CC(=O)Nc2ccc(Br)cc2F)cc1 | -4.31%
COc1cccc(OC)c1C(=O)Nc1ccc(Br)cc1F | -9.81%
OCCCNc1ncnc2c1c(-c1ccccc1)cn2-c1cccc(C(F)(F)F)c1 | 7.04%
CCC(C(=O)Nc1ccc(C(C)=O)cc1)c1ccccc1 (stereo not drawn) | 6.3%
COc1cccc(-n2c(SCC(=O)NCCC3=CCCCC3)nc3nnc(C)c-3c2N)c1 | -2.17%
CCOC(=O)c1ccc(-c2ccc(C=C3C(=O)NC(=O)NC3=O)o2)cc1 | -0.769%
COc1ccc(NCc2c(F)cccc2F)c(OC)c1 | 3.15%
CC(=O)N(CC(=O)O)CC1(c2ccc(Cl)s2)CCCCC1 | 2.32%
COc1cc(OC)c(C2C(C#N)=C(N)Oc3c2c(=O)oc2ccccc32)cc1Br (stereo not drawn) | 1.96%
Cc1oc(-c2cccs2)nc1CSCC(=O)N1CCCC1 | -8.34%
CCOc1ccccc1C1NC(=O)NC(C)=C1C(=O)OC (stereo not drawn) | 3.32%
Cc1ccc(C(=O)OC2=C(c3ccccc3)C(=O)c3ccccc3C2=O)cc1 | -5.51%
COc1ccc(C2CC(c3ccccc3)=NN2c2ccccc2C(=O)O)cc1 (stereo not drawn) | -2.59%
CCOc1ccc(N2C(=O)CC(N(Cc3ccc4c(c3)OCO4)C(C)=O)C2=O)cc1 (stereo not drawn) | -14.6%
O=C(O)c1cnc2ccc(Cl)cc2c1O | 1%
COc1ccccc1-c1c(C)nn2c(NCCN3CCN(Cc4ccccc4)CC3)cc(C)nc12 | 1.55%
O=C1NC(=O)C(=Cc2c3ccccc3cc3ccccc23)C(=O)N1 | 22.5%
CC1CCCCN1CCCn1cnc2c3ccccc3nc-2c1O (stereo not drawn) | 4.8%
O=C1C(c2cc(O)c3ccccc3n2)=C(O)c2ccccc21 | 3.67%
CN1C(C(=O)Nc2cccnc2)=CC(c2cccs2)=NS1(=O)=O | -2.84%
COc1cc(NC(=O)c2cccnc2)c(OC)cc1NC(C)=O | -2.94%

SMILES | % Inhibition @ 10 uM
CN(C)CCCN(CCCN(C)C)Cc1ccccc1C(F)(F)F | -5.42%
O=C1c2ccccc2C(=O)N1Cc1c(Cl)cccc1Cl | 1.72%
Cc1cc2c(cc3c(=O)n(CC(=O)NCc4ccccn4)ncn32)s1 | -7.47%
C=C1C2(C(=O)Nc3cccc(C(C)=O)c3)CCC(C2)C1(C)C (stereo not drawn) | 0.983%
CN(Cc1ccco1)C(=O)c1ccc(CNS(=O)(=O)c2ccc(Br)cc2)cc1 | -7.16%
Cc1ccccc1CSCC(=O)NCc1ccco1 | -6.7%
CCN1CCN(c2ncccn2)CC1 | -1.99%
CCCc1ccc(C2C(C#N)=C(N)Oc3[nH]nc(C)c32)s1 (stereo not drawn) | 1.08%
CCCCCc1ccc(C2=NNC(=O)CC2)cc1 | 4.98%
COc1ccc(N2CCN(C(=O)c3ccccc3C(=O)O)CC2)cc1 | 5.07%
Cc1ccc(Cn2ccc(NC(=O)c3cc(-c4ccco4)on3)n2)cc1 | 1.23%
Cc1ccc(C(C)C)c(OCC(=O)Nc2sc(C)c(C)c2C(N)=O)c1 | 13.9%
CC(C)(CN1CCCC1)NC(=O)c1ccc2ccccc2n1 | -0.0678%
c1ccc2[nH]c(CCc3nc4ccccc4[nH]3)nc2c1 | 4.6%
Cc1ccc(S(=O)(=O)n2nc(-c3ccco3)nc2NCc2ccc(Cl)cc2)cc1 | 3.51%
CC1(C)Cc2nc3sc4c(N(CCO)CCO)ncnc4c3cc2CO1 | -4.18%
Cc1ccc(-n2nc(C)c3c(C(=O)NCCN4CCCCCC4)cc(C)nc32)cc1 | -3.1%
O=C(CN1C(=O)S/C(=C/c2ccccc2F)C1=O)N1CCOCC1 | -4.91%
COc1cccc(CN(C(=O)COc2ccc(C)cc2)C2CCS(=O)(=O)C2)c1 (stereo not drawn) | -1.35%
Cc1ccc(S(=O)(=O)N(CC(=O)N2CCCCCC2)c2ccccc2)cc1 | -7.8%
Cc1cccc2c1-c1sc(C(=O)N(CCCOC(C)C)Cc3ccco3)cc1CO2 | 1.7%
Brc1ccc(-c2ncc(-c3ccccc3)cn2)cc1 | -0.351%

SMILES | % Inhibition @ 10 uM
CCOC(=O)N1CCN(C(=O)CSc2nnc(-c3ccc(F)cc3)o2)CC1 | 2.42%
CCCNCc1c(C(=O)O)n(Cc2ccccc2C)c2cc(OC)ccc12 | -8.18%
NC(=O)c1oc2ccccc2c1NC(=O)c1ccc(Cl)cc1 | 1.62%
Cc1ccc(Cc2nnc(C(=O)NC(C)c3ccccc3)o2)cc1 (stereo not drawn) | -2.23%
COc1ccc(-c2ccccc2)cc1NC1C2CC3CC(C2)CC1C3 (stereo not drawn) | 3.18%
Cc1cc(C)cc(NC(=O)Cc2cccs2)c1 | 4.03%
O=C(NCCO)c1ccc(-c2nnc(N3CCOCC3)c3ccccc23)cc1 | 26.7%
CCOC(=O)/C(C#N)=C\c1cccc([N+](=O)[O-])c1 | 4.3%
C=CCOC(=O)C1=C(C)NC(=O)NC1c1ccc(Cl)c(Cl)c1 (stereo not drawn) | -5.2%
CCN(CC)c1nc2c(S(=O)(=O)c3ccc(C)c(C)c3)nnn2c2ccsc12 | 4.06%
Cc1cccc(C(=O)Nc2ccccc2)c1 | -2.51%
Cc1cc(C)cc(NS(=O)(=O)c2ccc(NC(=O)COc3ccccc3C)cc2)c1 | -4.7%
COc1cc(-n2nnnc2SCC(=O)NCc2ccccc2)c(OC)cc1Cl | 0.9%
O=C1c2ccccc2C(=O)N1CC1c2ccccc2CCN1C(=O)CN1CCOCC1 (stereo not drawn) | 5.98%
Cc1cc(C)cc(NC(=O)COc2ccccc2)c1 | 1.35%
O=C(c1ccc(Cl)cc1Cl)N1CCN(Cc2ccc3c(c2)OCO3)CC1 | -8.28%
Cc1ccc(CNC(=O)c2noc3c2COc2ccccc2-3)cc1 | 72.8%
Cc1cc(C)nc(NC(=O)COc2ccc(C(C)C)cc2)n1 | 4.18%
Cc1ccccc1NC(=O)C1CC=CCC1C(=O)NCc1ccccc1 (stereo not drawn) | -5.47%
CCOC(=O)c1cc(O)c2c(n1)c(C)cc1c(C)c(C)[nH]c12 | 2.73%
COc1ccccc1C(=O)Nc1cccc(-c2nc3cc(C)ccc3o2)c1C | 1.41%
O=C(c1cc2ccccc2oc1=O)N(Cc1cccs1)C1CCS(=O)(=O)C1 (stereo not drawn) | 1.89%
